Assay results published in the supplement of paper PMC12350171.

Tests used:
[1] = tested on: Salmonella enterica Typhimurium in Com20; experiment: S. Typhimurium luminescence in drug-pretreated Com20 relative to untreated Com20 (fold of untreated control); higher = more pathogen expansion
[2] = tested on: Salmonella enterica Typhimurium (community: Com21 (Com20 + E. coli ED1a)); experiment: pathogen growth (luminescence or CFU) in drug-pretreated community relative to untreated community (fold of untreated control); higher = more pathogen expansion
[3] = drug pretreatment concentration 10 µM
[4] = drug pretreatment concentration 20 µM
[5] = drug pretreatment concentration 40 µM
[6] = drug pretreatment concentration 80 µM
[7] = drug pretreatment concentration 160 µM
[8] = drug pretreatment concentration 2.5 µM
[9] = drug pretreatment concentration 5 µM

| SMILES | S. Typhimurium luminescence [1, 3] | S. Typhimurium luminescence [1, 4] | S. Typhimurium luminescence [1, 5] | S. Typhimurium luminescence [1, 6] | S. Typhimurium luminescence [1, 7] | pathogen growth [2, 3] | pathogen growth [2, 4] | pathogen growth [2, 5] | pathogen growth [2, 6] | pathogen growth [2, 7] | S. Typhimurium luminescence [1, 8] | S. Typhimurium luminescence [1, 9] | pathogen growth [2, 8] | pathogen growth [2, 9] |
| --- | --- | --- | --- | --- | --- | --- | --- | --- | --- | --- | --- | --- | --- | --- |
| C[C@H]1O[C@H](O[C@H]2[C@H](O)[C@@H](O)[C@@H](O[C@H]3[C@H](O)[C@@H](O)C(O)O[C@@H]3CO)O[C@@H]2CO)[C@H](O)[C@@H](O)[C@@H]1N[C@H]1C=C(CO)[C@@H](O)[C@H](O)[C@H]1O (stereo not given in full) [Acarbose] | 1.91 | 1.61 | 1.86 | 1.82 | 2 | 2.54 | 2.37 | 2.46 | 3.06 | 2.33 | – | – | – | – |
| CN(C)CCCN1c2ccccc2Sc2ccc(Cl)cc21 [Chlorpromazine] | 1.72 | 1.45 | 1.38 | 1.82 | 3.86 | 1.42 | 1.1 | 1.28 | 3 | 7.74 | – | – | – | – |
| CN(C)CC/C=C1/c2ccccc2Sc2ccc(Cl)cc21 [Chlorprothixene] | 1.31 | 1.1 | 1.31 | 1.91 | 2.21 | 1.37 | 1.27 | 1.07 | 1.84 | 6.34 | – | – | – | – |
| Clc1ccc(Cn2c(CN3CCCC3)nc3ccccc32)cc1 [Clemizole] | 1.57 | 1.25 | 1.21 | 1.14 | 1.32 | 1.36 | 1.33 | 1.33 | 1.56 | 2.14 | – | – | – | – |
| CC(=O)Oc1cccc2c1C(=O)c1c(OC(C)=O)cc(C(=O)O)cc1C2=O [Diacerein] | 1.02 | 0.726 | 0.254 | 1.34 | 6.23 | 0.856 | 1.53 | 1.87 | 5.83 | 6.02 | – | – | – | – |
| O=c1oc2ccccc2c(O)c1Cc1c(O)c2ccccc2oc1=O [Dicumarol] | 1.17 | 1.01 | 1.26 | – | – | 0.985 | 1.08 | 1.32 | – | – | 1.19 | 1.06 | 1.38 | 1.16 |
| C/C=C(/C(=C/C)c1ccc(O)cc1)c1ccc(O)cc1 [Dienestrol] | 1.07 | 1.17 | 1.94 | – | – | 0.839 | 1.27 | 2.77 | – | – | 1.44 | 0.925 | 1.1 | 0.881 |
| C[C@]12CCC3=C4CCC(=O)C=C4CC[C@H]3[C@@H]1CC[C@@]2(O)CC#N [Dienogest] | 1.1 | 1.04 | 1.08 | 1.34 | – | 0.943 | 0.942 | 0.946 | 1.21 | – | – | 1.19 | – | 0.993 |
| C#C[C@]1(O)CC[C@H]2[C@@H]3CCc4cc(O)ccc4[C@H]3CC[C@@]21C [Ethinylestradiol] | 1.08 | 0.922 | 1.05 | 2.2 | – | 1.05 | 1.11 | 1.07 | 1.52 | – | – | 1.21 | – | 1.11 |
| CCN(CC)C(C)CN1c2ccccc2Sc2ccccc21 (stereo not given) [Ethopropazine] | 1.53 | 1.18 | 1.48 | 1.24 | 1.86 | 1.57 | 1.41 | 1.09 | 1.41 | 1.82 | – | – | – | – |
| OC(Cn1cncn1)(Cn1cncn1)c1ccc(F)cc1F [Fluconazole] | 0.915 | 0.979 | 0.767 | 0.855 | 0.937 | 1.23 | 1.3 | 0.808 | 1 | 1.36 | – | – | – | – |
| CC(=O)N1CCN(c2ccc(OCC3COC(Cn4ccnc4)(c4ccc(Cl)cc4Cl)O3)cc2)CC1 (stereo not given) [Ketoconazole] | 1.46 | 0.934 | 0.96 | 0.863 | 1.93 | 1.33 | 0.926 | 0.706 | 1.23 | 2.48 | – | – | – | – |
| CCOC(=O)C1=C(C)NC(C)=C(C(=O)OCC)C1c1ccccc1/C=C/C(=O)OC(C)(C)C [Lacidipine] | 0.599 | 0.515 | 0.757 | – | – | 0.77 | 0.813 | 0.541 | – | – | 1.17 | 0.776 | 1.35 | 0.954 |
| Cc1c(OCC(F)(F)F)ccnc1C[S+]([O-])c1nc2ccccc2[nH]1 (stereo not given) [Lansoprazole] | 1.59 | 1.29 | 1.07 | 1.35 | 2.22 | 1.34 | 1.02 | 0.855 | 0.756 | 1.1 | – | – | – | – |
| CN1CCN(C2=Nc3ccccc3Oc3ccc(Cl)cc32)CC1 [Loxapine] | 2.21 | 1.33 | 1.42 | 1.69 | 2.46 | 1.47 | 1.24 | 1.1 | 1.3 | 2.04 | – | – | – | – |
| Cc1c(N(C)CS(=O)(=O)O)c(=O)n(-c2ccccc2)n1C [Metamizole] | 1.1 | 0.914 | 0.884 | 1.02 | 1.11 | 1.16 | 1.21 | 1.09 | 1.08 | 1.16 | – | – | – | – |
| CN(C)C(=N)NC(=N)N [Metformin] | 1.68 | 1.12 | 0.858 | 0.98 | 1.13 | 1.12 | 0.933 | 0.786 | 0.862 | 1.25 | – | – | – | – |

Synthetic gut communities (20 or 21 species) grown anaerobically with drug for 24 h at the dose given, then challenged with the named pathogen. Pathogen growth (luminescence, or colony counts for V. cholerae) or community OD578 as fold of untreated communities, mean of three; above 1 = more growth. No active / inactive call.
